PubChem BioAssay AID2675 (National Center for Advancing Translational Sciences (NCATS), 2010)
In all, about 280,000 compounds went through this assay and about 100 (0.036%) were called active. The inconclusive results got no clear call from the source; some entries with a clear call stand among them for comparison. Calls follow the shape of the dose curve; as a rule, active = well fitted inhibition curve with a large enough effect in the signal ratio, with a control signal flat (not every such curve was filed as active); inconclusive = small, poorly fitted or top-dose-only effect, or effect the other way, or a change in a side signal; inactive = no such curve, though single readings can be large or run the other way; the % refers to the signal ratio. Potencies of inconclusive entries are doubtful fits and often do not repeat. A note “side channel” means that the fit belongs to a control or component signal, not to the main read-out.
% is scaled to controls: 0 for no effect and ±100 for the full control effect; potency is read from the fitted curve at half-maximal effect; tags tell the direction and shape of the fitted curve or compound fluorescence and quenching.

The molecules below were run against Muscleblind-like protein 1 (Homo sapiens) (UniProt Q9NR56) (assay: qHTS Assay for Inhibitors of MBNL1-poly(CUG) RNA binding). Conditions: TR-FRET MBNL1-His/biotin-(CUG)12 binding, 665/545 ratio; activity change, negative = inhibition: at 57.5 µM (top of the series).
UniProt Q9NR56, sequence (Q9NR56 whole entry, looked up): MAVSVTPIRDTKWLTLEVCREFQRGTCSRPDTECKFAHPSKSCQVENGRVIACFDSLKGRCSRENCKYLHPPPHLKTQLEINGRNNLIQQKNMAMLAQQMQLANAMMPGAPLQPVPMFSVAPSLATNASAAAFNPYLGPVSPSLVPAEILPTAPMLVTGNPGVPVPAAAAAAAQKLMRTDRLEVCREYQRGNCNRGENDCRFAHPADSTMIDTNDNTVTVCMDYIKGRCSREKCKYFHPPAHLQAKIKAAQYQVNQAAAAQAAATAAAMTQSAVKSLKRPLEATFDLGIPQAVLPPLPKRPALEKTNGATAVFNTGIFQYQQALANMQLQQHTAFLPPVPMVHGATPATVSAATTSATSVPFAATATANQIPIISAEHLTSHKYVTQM
Method in brief: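 Ratiometric TR-FRET (665 over 545 nm, excitation 340 nm) tracks disruption of MBNL1-His/biotin-(CUG)12 complex after 60 min at room temperature, with compounds at 92 nM to 58 uM final.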
In the case of `CC(C)(C)NC(=O)CSc1ccc(C(C)(C)C)cc1`, the Potency is reported as inconclusive: 50.1 µM [inhibitor, partial curve]. In the case of `O=C(/C=C/c1ccc(Br)o1)Nc1nccs1`, the “activity change, negative = inhibition” value is reported as inactive: 16.9%. In the case of `O=C(O)CSc1nnc(CNc2ccc(Cl)cc2)n1Cc1ccccc1`, the “activity change, negative = inhibition” value is reported as inactive: -4.2%. With `Cc1ccc(NS(=O)(=O)c2ccc(C3CCCCC3)cc2)cc1` the Potency was inconclusive: 0.0891 µM [fluorescent, side channel, full curve]. For `CCOC(=O)C(=O)c1c(-c2ccc(C)cc2)nc2ccccn12`, the Potency was inconclusive: 20 µM [quencher, side channel, partial curve]. `Cc1nc(N2CCCCC2)sc1C(=O)c1ccc(SCCO)c([N+](=O)[O-])c1` was tested, and the Potency was inconclusive: 15.8 µM [quencher, partial curve]. `O=C(OCCN1C(=O)c2ccccc2C1=O)c1cc(S(=O)(=O)N2CCOCC2)ccc1Cl` was tested, and the “activity change, negative = inhibition” value was inactive: 12.1%. With `CC(=O)N1CCN(c2ccc(S(C)(=O)=O)cc2[N+](=O)[O-])CC1` the Potency was inconclusive: 39.8 µM [quencher, side channel, partial curve]. For `O=C(Cn1c(=O)c(=O)n(Cc2ccccc2)c2ccc(Cl)cc21)Nc1cccc(F)c1`, the Potency was inconclusive: 44.7 µM [fluorescent, side channel, partial curve]. With `COC(=O)c1cc(C(=O)OCC(=O)Nc2ccccc2OC(F)F)cc([N+](=O)[O-])c1` the Potency was inconclusive: 10 µM [quencher, side channel, partial curve]. For `COC/C=C/C1=CC2=CC(=O)C(C)(OC(=O)c3cnc4ccccc4n3)C(=O)C2=CN1C1CCCCC1` (configuration not stated), the Potency was inconclusive: 17.8 µM [quencher, side channel, single point]. With `COc1ccc(C2C(=O)c3ccccc3C2=O)cc1OC` the Potency was inconclusive: 39.8 µM [quencher, side channel, single point]. For `Cc1ccc(O)c(NC(=O)C2=CC(c3cccs3)=NS(=O)(=O)N2C)c1`, the Potency was inconclusive: 17.8 µM [quencher, side channel, partial curve]. In the case of `COc1cc(/C=N/NC(=O)/C(=C\c2ccc([N+](=O)[O-])cc2)NC(=O)c2ccccc2)cc(OC)c1O`, the Potency is reported as inconclusive: 15.8 µM [quencher, side channel, partial curve]. For `COc1ccc(-c2ccc(C#N)c(SCC(=O)NCc3ccco3)n2)cc1OC`, the Potency was inconclusive: 7.94 µM [quencher, side channel, partial curve]. `O=C(NC12CC3CC(CC(C3)C1)C2)c1cc([N+](=O)[O-])ccc1N1CCOCC1` was tested, and the Potency was inconclusive: 20 µM [quencher, side channel, partial curve]. In the case of `Cc1ccc(F)cc1NC(=O)C1CCCN(c2ncccn2)C1` (configuration not stated), the Potency is reported as inconclusive: 28.2 µM [quencher, side channel, single point]. In the case of `CCCN1C(=O)/C(=C\C=C2/C=CN(CC)c3ccccc32)SC1=S`, the Potency is reported as inconclusive: 3.55 µM [quencher, side channel, full curve]. For `CC1CCCCN1CCNC(=O)C1CCN(S(=O)(=O)c2cccc3nsnc23)CC1` (configuration not stated), the Potency was inconclusive: 17.8 µM [quencher, side channel, partial curve]. With `COc1nc(N/N=C/c2ccc(-c3ccccc3[N+](=O)[O-])o2)nc(N2CCOCC2)n1` the Potency was inconclusive: 22.4 µM [quencher, partial curve, poor fit]. `CCCC(=O)Nc1cccc(C(=O)Nc2ccccc2OCC)c1` was tested, and the “activity change, negative = inhibition” value was inactive: -3.82%. With `COc1ccc(-c2ccc(C(=S)N3CCN(C(C)=O)CC3)o2)cc1` the Potency was inconclusive: 15.8 µM [quencher, side channel, partial curve]. `O=C(CN(Cc1ccccc1)S(=O)(=O)c1ccc(Cl)cc1)NCC1CCCO1` (configuration not stated) was tested, and the “activity change, negative = inhibition” value was inactive: 1.62%. In the case of `Nc1cc2c3c(cccc3c1)C(=O)N(CCN1CCCC1)C2=O`, the Potency is reported as inconclusive: 15.8 µM [quencher, side channel, partial curve]. For `CCO/N=C1\C(=O)N(c2ccccc2)c2ccccc21`, the Potency was inconclusive: 25.1 µM [quencher, side channel, partial curve]. In the case of `Cc1ccc(NC(=O)CC2SC(=O)N(c3ccccc3)C2=O)cc1` (configuration not stated), the “activity change, negative = inhibition” value is reported as inactive: 7.17%. In the case of `Cc1ccc(N=C2c3ccccc3C(=O)C2[N+](=O)[O-])cc1C` (configuration not stated), the Potency is reported as inconclusive: 25.1 µM [quencher, side channel, single point]. In the case of `Cc1ccccc1C(=O)N1CCN(c2ccc([N+](=O)[O-])c(NCc3ccco3)c2)CC1`, the Potency is reported as inconclusive: 3.16 µM [quencher, side channel, full curve, poor fit]. With `O=C1c2cccc3cccc(c23)C(=O)N1CCCN1CCN(c2ccc(F)cc2)CC1` the Potency was inconclusive: 14.1 µM [quencher, side channel, partial curve]. With `CCOC(=O)c1c(/N=C/N(C)C)sc(C=O)c1-c1ccccc1` the Potency was inconclusive: 15.8 µM [quencher, side channel, partial curve]. `Cc1ccsc1/C=C1/SC(N2CCOCC2)=NC1=O` was tested, and the Potency was inconclusive: 25.1 µM [quencher, side channel, partial curve, poor fit]. `CC(C)(C)Sc1ccc(/C=N/O)cc1[N+](=O)[O-]` was tested, and the Potency was inconclusive: 31.6 µM [quencher, side channel, single point]. `Cc1cccc(NC(=O)c2sc3nc4c(c(-c5cccs5)c3c2N)CN(C)CC4)c1` was tested, and the Potency was inconclusive: 11.2 µM [quencher, side channel, partial curve]. In the case of `c1ccc2cc3c(NCCN4CCOCC4)ccnc3cc2c1`, the Potency is reported as inconclusive: 14.1 µM [quencher, side channel, partial curve]. With `Cn1c(=O)c(-c2ccccc2[N+](=O)[O-])c(Cl)c2ccccc21` the Potency was inconclusive: 35.5 µM [quencher, side channel, single point]. For `CCOC(=O)/C(=N\Nc1cc(Cl)ccc1Cl)N1CC(C)OC(C)C1` (configuration not stated), the “activity change, negative = inhibition” value was inactive: 1.76%. `CCN(CC)S(=O)(=O)c1ccc(-c2cn3cc(Cl)ccc3n2)cc1` was tested, and the “activity change, negative = inhibition” value was inactive: 5.73%.
